# Results: the supplement of paper PMC4466236
# Whole data set: some 33,000 sequences, median “E-score (dimensionless, -0.5 to 0.5)” near -0.058, cut for the highest 2% near 0.35. The list shows a part of the results.
# System: MvaT
# Assay: PBM 8-mer E-score (mean of HK and ME arrays) (E-score (dimensionless, -0.5 to 0.5)); higher = stronger relative binding preference; most listed sequences are background and not binding sites
# Procedure, shortened: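 Full-length P. aeruginosa MvaT, with glutathione S-transferase fused to its N-terminus (cloned into pTH6838 by isothermal assembly), was tested by protein binding microarray using a previously described protocol. Two universal double-stranded 60-mer arrays (ME and HK) were used, each with a constant 25-mer primer region and a variable 35-mer region covering all 8-mers. The rank-based 8-mer E-score (-0.5 to 0.5) is the mean of the two arrays, parsed with a custom Python script.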
row,Sequence,PBM 8-mer E-score
1,GTGGTCCA,-0.131
2,ACCAAACT,0.0981
3,ACCATGAA,-0.0165
4,GGCGCTCA,-0.203
5,CTAACAGA,0.00653
6,CACCCGAG,-0.206
7,ACTTGGCT,0.0613
8,AGCTATTC,-0.0785
9,ACAACAAT,0.372
10,ATGCAGTC,-0.089
11,GATCTCCC,-0.213
12,CCCAAGAG,-0.121
13,AGGGCACC,-0.22
14,AGAAGCCG,-0.228
15,AGCTCCTG,-0.244
16,AATAAAGG,0.228
17,TGAGTTAA,0.272
18,CGCAGAGA,-0.271
19,GGTGAAAA,0.082
20,AATAAATA,0.434
21,AGCGACTC,-0.288
22,GTGGTGTA,0.173
23,GCTAGTCA,-0.0847
24,CAAAATAG,0.166
25,AGCATGGA,-0.19

row,Sequence,PBM 8-mer E-score
1,AGCGACAG,-0.0961
2,TGAATACA,0.128
3,CATCAAGA,-0.0894
4,AACGTAAC,0.121
5,AAAAGTCT,0.157
6,CAGGGCAA,-0.203
7,AGTCAACA,0.067
8,AAGTCGTA,0.0511
9,ATATATCG,0.442
10,GGGGGCAA,-0.259
11,ACTCCCTG,-0.187
12,CAGACCTC,-0.201
13,CCGAGTAC,0.0211
14,CCTATAAC,0.186
15,TACGGCGA,-0.204
16,GTACAATA,0.309
17,AGAGCATC,-0.137
18,GGCGGCGA,-0.157
19,CGCTTCAG,-0.164
20,CGAGGTAG,-0.121
21,AACCTGAG,-0.107
22,CTCAACGC,-0.248
23,AAATGACG,0.166
24,GCACCTCA,-0.202
25,CATCTTAA,0.134

row,Sequence,PBM 8-mer E-score
1,AAGGGAGG,-0.339
2,AAGGCGGA,-0.167
3,CGTCGACG,-0.164
4,GTAGTTGA,0.153
5,ACAACCCA,-0.0175
6,AGTGCATC,-0.11
7,ATGATGAG,0.0335
8,CAGCACGC,-0.301
9,CGCACCCA,-0.0985
10,GTCTACTA,0.0723
11,ACAACGGC,-0.0149
12,CCAGGATA,-0.0314
13,CATGCGGA,-0.0548
14,AGTGCACC,-0.0824
15,ACACACAG,0.204
16,ACGTTATA,0.339
17,ACGGCGCA,-0.237
18,CGAAAGAC,-0.0962
19,GGTGTAAC,0.0209
20,ATCCCACA,0.123
21,ATTCAGCC,0.00653
22,ACGGGGTC,-0.337
23,CTTTTACA,0.0261
24,CATTAGTC,0.000526
25,ACCGTTGG,-0.272

row,Sequence,PBM 8-mer E-score
1,ACATGAGG,-0.121
2,GAATATGA,0.19
3,AGGGTCTA,-0.248
4,GCAGGCCA,-0.293
5,ATGCACGG,0.0298
6,CCCACGGC,-0.248
7,GAAAGAGC,-0.113
8,CCCAAACG,0.0684
9,AAATCGTG,-0.00219
10,CTGACCTC,-0.26
11,AGTAGTTG,0.203
12,TACCGCGA,0.0283
13,GTGAAAGA,0.0714
14,CTTGTATC,-0.101
15,GCCGGACC,-0.206
16,ATCAGAAG,0.0934
17,AGGCAGCG,-0.221
18,CACCTCAC,-0.202
19,GTAGGGCA,-0.179
20,ATCCCTTG,-0.144
21,CAAGGAAG,-0.202
22,GAGATACC,-0.0827
23,GATGTCCA,-0.0647
24,TGAGTGAA,0.0309
25,AGGCGTTG,-0.093

row,Sequence,PBM 8-mer E-score
1,ACACCTCC,-0.0337
2,GTGGATCA,-0.0325
3,ATACAATA,0.372
4,ACCCTCGC,-0.152
5,CATGAGAG,-0.157
6,GCGGATGA,-0.235
7,ACCAATCT,0.172
8,CTGATGAC,-0.127
9,CAGATTCC,-0.157
10,CGCTAATC,0.0307
11,CCGTTAGC,-0.209
12,AACCTCCC,-0.253
13,CGGTGATA,0.0816
14,GGAATTTA,0.175
15,AAGCAACT,0.0197
16,CTATCGCC,-0.136
17,AAAAAACG,0.145
18,GATAGAGA,0.11
19,ACCGGAAT,0.103
20,CAAATGAG,0.0159
21,GAACGGAA,-0.124
22,AGGCCGCG,-0.184
23,CAAACTCG,0.0117
24,AGTATGAG,0.0253
25,CGTTAGAC,-0.175

row,Sequence,PBM 8-mer E-score
1,ATTCGCAC,0.113
2,AATGGTTG,-0.0297
3,AGCCCGTC,-0.156
4,AAAACGAA,0.197
5,CGGATGCC,-0.285
6,AATATTGG,0.278
7,CACATATA,0.405
8,TGAAGTCA,-0.0874
9,CATTGATA,0.146
10,GCCACCCC,-0.362
11,ACAGACGT,-0.13
12,CATGAACA,0.00134
13,AATTCTCC,0.0595
14,CCCTGGAC,-0.282
15,GCCTATTA,0.0822
16,CACGACAG,-0.183
17,AATAACAG,0.273
18,CAACAGGA,0.0126
19,ACCGCACT,0.0223
20,CCTATTTA,0.212
21,AGGAACCC,-0.169
22,ACCTCGCT,-0.247
23,ATACCCGC,-0.00464
24,CTACGGGA,-0.153
25,AGTCGAAG,-0.0804

row,Sequence,PBM 8-mer E-score
1,GTTCGAAC,0.153
2,CTTAAGGA,-0.00982
3,ATGCTCTC,-0.108
4,ACGTGGCG,-0.144
5,GGTGCACA,0.00341
6,ATCGAAAG,0.0954
7,AAACATTT,0.237
8,AAGACAGA,0.0184
9,TATATAGA,0.434
10,AGGTGCGG,-0.222
11,CATAGTGC,-0.0608
12,GGTTTGAA,0.062
13,CGCGGAGC,-0.246
14,ATATTCCG,0.287
15,AAGTTAGC,0.22
16,CAACGTAG,0.0178
17,ATACGACG,0.0517
18,GCAGACGA,-0.216
19,CCGTTAGA,-0.0162
20,TGTGCACA,-0.0015
21,CCCGTTGC,-0.103
22,GCTGCGAC,-0.24
23,GCAAGTTA,0.34
24,GCGGCACC,-0.219
25,CGCTCTTA,0.0777

row,Sequence,PBM 8-mer E-score
1,CTGACCCA,-0.255
2,ACGACAAT,0.148
3,AAGGTGGT,-0.0687
4,ACCACTAA,0.135
5,GCATGATA,0.0908
6,CCAGTCAG,-0.0925
7,CGAACAAG,-0.0762
8,ATTAGAGA,0.0776
9,AGTGTGTC,-0.0092
10,CGCAAGGA,-0.231
11,GGGCTATA,-0.122
12,ACACCCGT,-0.138
13,GTCCGAAA,-0.0129
14,CGGCTTAC,-0.203
15,AAGGAAAT,-0.0477
16,ATCTGTCC,-0.0306
17,AAGAACAG,-0.0254
18,AGTTGTAC,0.163
19,CGAGAGTC,-0.234
20,CGCAGCAG,-0.21
21,GTGCCGAA,-0.111
22,AGGCAGGA,-0.151
23,GACAGCAC,-0.193
24,GACAGAAA,-0.102
25,AGCGGGTC,-0.207

row,Sequence,PBM 8-mer E-score
1,CAAAGAAG,0.0159
2,CCATGGAG,-0.231
3,CCTAGCCA,-0.128
4,ATATGGGA,0.163
5,AAGAGAAC,-0.119
6,AGGAGGGG,-0.319
7,AACTCGCA,0.121
8,GCACATTA,0.19
9,AAATTGAA,0.339
10,CTCACGAA,-0.0954
11,TAGAGATA,0.0793
12,CCGACGTC,-0.152
13,ACTGATAA,0.209
14,CTATTCTC,-0.0677
15,CTGGGCAC,-0.222
16,CATACTAA,0.198
17,ACTCCTCT,0.00157
18,TCTGCTAA,0.0359
19,ATTAATCC,0.332
